# Laboratory results taken from PubChem BioAssay AID2676 (National Center for Advancing Translational Sciences (NCATS), 2010).
# Values joined by “and” are separate entries in the source; they are usually repeats but may differ in a detail not shown here. Identical values can stand only once. Screen size: about 370,000 compounds; about 1,100 (0.3%) were called active. The shares of active, inactive and inconclusive entries below differ from those in the screen. Calls follow the shape of the dose curve; as a rule, active = well fitted activation curve with a large enough effect; inconclusive = small, poorly fitted or top-dose-only effect; inactive = flat fitted curve, though single readings scatter. Where the call is inconclusive, the potency comes from a doubtful curve fit. A structure can be active in one record and inactive in another.
# Target: Relaxin receptor 1 (Homo sapiens) (UniProt Q9HBX9)
# UniProt Q9HBX9, sequence (Q9HBX9 whole entry, looked up): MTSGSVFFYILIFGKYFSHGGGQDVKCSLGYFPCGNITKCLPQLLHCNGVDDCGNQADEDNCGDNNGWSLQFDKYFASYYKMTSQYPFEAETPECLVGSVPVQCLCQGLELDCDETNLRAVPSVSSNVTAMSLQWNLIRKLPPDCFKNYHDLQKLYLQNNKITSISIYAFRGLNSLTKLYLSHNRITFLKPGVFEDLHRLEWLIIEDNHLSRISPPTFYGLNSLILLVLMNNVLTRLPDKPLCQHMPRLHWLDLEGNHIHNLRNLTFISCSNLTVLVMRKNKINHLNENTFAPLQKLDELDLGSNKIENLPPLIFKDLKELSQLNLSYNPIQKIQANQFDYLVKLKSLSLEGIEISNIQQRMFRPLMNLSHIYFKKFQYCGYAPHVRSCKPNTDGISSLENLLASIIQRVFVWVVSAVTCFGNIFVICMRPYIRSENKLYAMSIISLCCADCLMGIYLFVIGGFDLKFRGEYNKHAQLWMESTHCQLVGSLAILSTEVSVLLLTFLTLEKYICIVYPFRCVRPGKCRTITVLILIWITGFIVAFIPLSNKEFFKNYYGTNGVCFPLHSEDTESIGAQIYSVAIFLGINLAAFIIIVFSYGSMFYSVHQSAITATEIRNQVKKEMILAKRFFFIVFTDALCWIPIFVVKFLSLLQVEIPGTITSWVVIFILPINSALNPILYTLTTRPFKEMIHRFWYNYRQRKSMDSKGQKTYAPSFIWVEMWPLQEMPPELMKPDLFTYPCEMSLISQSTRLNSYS
# Experiment: qHTS Assay for Agonists of the Relaxin Receptor RXFP1; also: nearly all actives have a fitted effect of over 60% in size
# Settings: HEK293T-RXFP1 cAMP TR-FRET, 30 min; series mostly up to 57.5 µM; activation: at the top concentration
# Method in brief: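 HEK293T cells stably expressing RXFP1 were pretreated with the PDE4 inhibitor Ro 20174, exposed to compounds for 30 min at 37C, lysed, and cAMP was read by TR-FRET. Data normalized to buffer (basal) and 29 nM porcine relaxin (100%).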
# % is scaled to controls: 0 for no effect and ±100 for the full control effect; potency is read from the fitted curve at half-maximal effect; tags tell the direction and shape of the fitted curve.
SMILES,Potency,activation
Cc1ccc(Cl)cc1N1CCN(C(=O)C(C)n2ncn3cccc3c2=O)CC1 (configuration not stated),active: 28.2 µM,–
CCN1CCCc2cc(CN(CCN3CCOCC3)C(=S)Nc3ccccc3C)ccc21,"inconclusive: 39.8 µM [activator, single point]",–
Cc1cc2sc(C(=O)O)c(C)c2s1,"inconclusive: 22.4 µM [activator, partial curve]",–
CCCCCOc1ccc(C2C(C(=O)c3ccc(C)o3)=C(O)C(=O)N2c2cc(C)on2)cc1 (configuration not stated),"inconclusive: 22.4 µM [activator, partial curve]",–
NS(=O)(=O)c1ccc(CCNC(=O)CSc2ncnc3ccccc23)cc1,"inconclusive: 17.8 µM [activator, partial curve]",–
Cc1cccc(N2C(S)=C(C#N)C(=O)NC2c2ccco2)c1 (configuration not stated),"inconclusive: 28.2 µM [activator, partial curve]",–
CC(C)OCCCn1c(=O)c2ccccc2n2c(CCC(=O)NCc3ccccn3)nnc12,"inconclusive: 20 µM [activator, partial curve]",–
COc1cccc(C(=O)NCC(c2ccc(N(C)C)cc2)N2CCOCC2)c1OC (configuration not stated),–,inactive: 1.35%
COc1ccc(CNC(=O)c2ccc(Sc3ccc(Cl)cc3)c(NC(C)=O)c2)c(OC)c1,"inconclusive: 39.8 µM [activator, single point]",–
Cc1ccc(Nc2nc(-c3ccncc3)nc3ccccc23)cc1,"inconclusive: 39.8 µM [activator, single point]",–
COc1ccc(C(=O)OCC(=O)NC(C)CCc2ccccc2)cc1OC (configuration not stated),–,inactive: -0.0095%
CCCNC(=O)CSc1nc(COc2ccccc2)nc2ccccc12,"inconclusive: 20 µM [activator, partial curve]",–
Cn1c(C(=O)NCc2ccc(Cl)cc2)cc2c(=O)n(C)c3ccccc3c21,"inconclusive: 39.8 µM [activator, single point]",–
O=C(O)CCCCn1c(SCc2cc(=O)n3cc(Cl)ccc3n2)nc2ccsc2c1=O,"inconclusive: 17.8 µM [activator, partial curve]",–
COc1ccc(-c2cc(-c3ccccc3)nc(SCC(=O)Nc3nccs3)c2C#N)cc1,"inconclusive: 35.5 µM [activator, single point]",–
CCc1ccc(C(=O)c2cn(CC(=O)Nc3ccc(OC)c(Cl)c3)c3nc(C)ccc3c2=O)cc1,"inconclusive: 35.5 µM [activator, single point]",–
CCCN(C(=O)NCc1noc2ccc(C)cc12)c1ccc(Cl)c(Cl)c1,–,inactive: 0.861%
S=c1nc[nH]c2c1[nH]c1ccc(Cl)cc12,active: 3.16 µM,–
CSc1ccc(CNc2nc3ccccc3n3cnnc23)cc1,"inconclusive: 39.8 µM [activator, single point]",–
N#Cc1c(-c2ccccc2)cc(-c2ccccc2)nc1SCC(=O)Nc1ccc(Cl)cc1,"inconclusive: 5.01 µM [activator, full curve]",–
COc1ccc(CCNC(=O)Cn2c(-c3cccs3)cc3cc(F)ccc32)cc1OC,"inconclusive: 35.5 µM [activator, single point]",–

SMILES,Potency,activation
Fc1cccc(CSc2nc(NCCc3ccccc3)c3ccccc3n2)c1,–,inactive: -0.0159%
COc1ccccc1OCC(=O)Nc1cc(-c2ccc(C)cc2)no1,–,inactive: -2.32%
CC1CCN(S(=O)(=O)c2ccc3nc(N4CCN(c5ccccc5)CC4)ccc3c2)CC1,"inconclusive: 7.08 µM [activator, single point] and inconclusive: 6.31 µM [activator, single point]",–
Cc1cc(C)c2c(CC(=O)Nc3nnc(CC(C)C)s3)coc2c1,–,inactive: 0.29%
Cc1ccc(C2C(C(=O)c3ccco3)=C(O)C(=O)N2c2ncccn2)cc1 (configuration not stated),"inconclusive: 15.8 µM [activator, partial curve]",–
O=C(c1cc2ccccc2cc1O)N1CCCC(C(F)(F)F)C1 (configuration not stated),"inconclusive: 35.5 µM [activator, single point]",–
COc1ccc(/C=C2\CCc3c2nc2ccccc2c3C(=O)O)cc1OC,"inconclusive: 25.1 µM [activator, partial curve]",–
Brc1ccc(-c2nn3c(-c4ccco4)nnc3s2)o1,active: 12.6 µM,–
Cc1ccc(NC(=O)c2ccccc2NS(=O)(=O)c2ccc(F)cc2)cc1S(=O)(=O)N1CCCCC1,–,inactive: 0.252%
Cc1ccc(OCCCC(=O)Nc2sc3c(c2C(N)=O)CCC(C)C3)cc1 (configuration not stated),"inconclusive: 25.1 µM [activator, partial curve]",–
O=C1C(=O)N(c2ccccn2)C(c2ccc(F)cc2)/C1=C(/O)c1ccc(Br)cc1 (configuration not stated),"inconclusive: 28.2 µM [activator, partial curve]",–
CCSc1nnc(NC(=O)Cc2ccccc2OC)s1,"inconclusive: 35.5 µM [activator, single point]",–
Cc1nn(C(C)C(=O)NCC2CCCO2)c(=O)c2cc3occc3n12 (configuration not stated),"inconclusive: 20 µM [activator, partial curve]",–
O=C(CSc1oc(-c2ccc(F)cc2)nc1S(=O)(=O)c1ccccc1)c1ccc(Cl)cc1,"inconclusive: 31.6 µM [activator, single point]",–
COc1ccc(-c2sc(C(=O)c3ccc(Cl)cc3Cl)cc2CC(=O)O)cc1,"inconclusive: 8.91 µM [activator, partial curve]",–
COc1ccc(N2CCN(c3ccc(NC(=O)c4ccc5c(c4)OCO5)cc3C#N)CC2)cc1,"inconclusive: 7.94 µM [activator, partial curve]",–
COCCn1c(CN2CCN(C(c3ccccc3)c3ccccc3)CC2)nc2c1c(=O)n(C)c(=O)n2C,"inconclusive: 39.8 µM [activator, single point]",–
Cc1ccc(C)c(NC(=S)NCC(c2ccccc2)N(C)C)c1 (configuration not stated),–,inactive: 0.618%
O=C(Cn1nc(-c2ccc3c(c2)OCCO3)ccc1=O)Nc1ccc(-n2cnnn2)cc1,–,inactive: -1.65%
CCOC(=O)c1sc2ncnc(N3CCN(C(=O)OCC)CC3)c2c1C,"inconclusive: 25.1 µM [activator, partial curve]",–
COc1ccc(CNC(=O)CCc2c(C)nc3c4cccnc4nn3c2C)cc1,"inconclusive: 22.4 µM [activator, partial curve]",–
